Measurements: publication PMC10745200
No constants are given. Whether binding was seen depends on the method and setting. Binding seen in cells or lysates may run through a third protein. Some results given as binding are weak or reduced against the parent protein; the word gives no strength. For some assays here: Sequences can lack the tags named with a protein.

The chains behind the UniProt entries cited, without tags or fusion partners.
UniProt P28482: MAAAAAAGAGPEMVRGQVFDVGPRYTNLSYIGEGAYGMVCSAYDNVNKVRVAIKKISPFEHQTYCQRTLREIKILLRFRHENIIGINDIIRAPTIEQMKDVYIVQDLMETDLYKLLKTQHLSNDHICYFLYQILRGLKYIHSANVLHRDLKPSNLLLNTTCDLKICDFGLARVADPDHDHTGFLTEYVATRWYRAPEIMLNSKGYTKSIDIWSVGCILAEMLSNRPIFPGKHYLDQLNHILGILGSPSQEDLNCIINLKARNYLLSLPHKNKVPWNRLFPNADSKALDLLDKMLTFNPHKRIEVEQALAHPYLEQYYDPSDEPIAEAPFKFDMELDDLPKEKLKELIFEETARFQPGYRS
UniProt P27361: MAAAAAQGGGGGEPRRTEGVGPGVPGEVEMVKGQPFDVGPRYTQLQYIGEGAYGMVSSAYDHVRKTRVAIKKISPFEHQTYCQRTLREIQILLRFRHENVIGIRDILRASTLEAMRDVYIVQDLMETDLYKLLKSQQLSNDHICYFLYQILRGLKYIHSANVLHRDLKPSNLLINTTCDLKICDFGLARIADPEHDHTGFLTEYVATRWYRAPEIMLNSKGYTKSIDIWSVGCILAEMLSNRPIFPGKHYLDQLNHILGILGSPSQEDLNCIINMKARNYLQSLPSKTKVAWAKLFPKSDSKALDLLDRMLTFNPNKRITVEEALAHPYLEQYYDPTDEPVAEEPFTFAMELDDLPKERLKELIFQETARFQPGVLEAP

Key:
[1] = target: T1, HA-FBXO3 wild-type (UniProt Q9UK99); experiment: co-IP; Fig 5L: HEK293T co-transfected with the indicated expressing plasmids; IP-western
T1 sequence: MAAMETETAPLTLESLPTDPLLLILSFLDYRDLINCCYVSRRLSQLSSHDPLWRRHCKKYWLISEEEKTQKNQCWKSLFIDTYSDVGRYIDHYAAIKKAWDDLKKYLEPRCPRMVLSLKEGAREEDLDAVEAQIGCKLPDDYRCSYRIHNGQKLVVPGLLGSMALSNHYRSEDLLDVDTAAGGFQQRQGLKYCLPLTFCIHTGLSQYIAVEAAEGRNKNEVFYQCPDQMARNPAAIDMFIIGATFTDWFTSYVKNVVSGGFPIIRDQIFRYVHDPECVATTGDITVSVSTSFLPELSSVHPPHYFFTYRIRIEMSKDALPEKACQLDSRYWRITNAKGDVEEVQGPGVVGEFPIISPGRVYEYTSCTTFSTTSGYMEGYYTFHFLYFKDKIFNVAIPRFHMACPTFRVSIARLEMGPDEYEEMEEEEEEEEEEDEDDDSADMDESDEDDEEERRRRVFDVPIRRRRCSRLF

[2] = target: T2, Flag-USP4 (UniProt Q13107); experiment: co-IP; Fig 4F: HEK293T co-transfected with Flag-USP4 and HA-FBXO3, HA-FBXO3^ΔApaG, HA-FBXO3^ΔF or vector for 36 h, then 0.5 μm Tosedostat for 16 h; IP-western; FLAG/HA M2-conjugated agarose beads, 4°C overnight; which tag was precipitated is not told
T2 sequence: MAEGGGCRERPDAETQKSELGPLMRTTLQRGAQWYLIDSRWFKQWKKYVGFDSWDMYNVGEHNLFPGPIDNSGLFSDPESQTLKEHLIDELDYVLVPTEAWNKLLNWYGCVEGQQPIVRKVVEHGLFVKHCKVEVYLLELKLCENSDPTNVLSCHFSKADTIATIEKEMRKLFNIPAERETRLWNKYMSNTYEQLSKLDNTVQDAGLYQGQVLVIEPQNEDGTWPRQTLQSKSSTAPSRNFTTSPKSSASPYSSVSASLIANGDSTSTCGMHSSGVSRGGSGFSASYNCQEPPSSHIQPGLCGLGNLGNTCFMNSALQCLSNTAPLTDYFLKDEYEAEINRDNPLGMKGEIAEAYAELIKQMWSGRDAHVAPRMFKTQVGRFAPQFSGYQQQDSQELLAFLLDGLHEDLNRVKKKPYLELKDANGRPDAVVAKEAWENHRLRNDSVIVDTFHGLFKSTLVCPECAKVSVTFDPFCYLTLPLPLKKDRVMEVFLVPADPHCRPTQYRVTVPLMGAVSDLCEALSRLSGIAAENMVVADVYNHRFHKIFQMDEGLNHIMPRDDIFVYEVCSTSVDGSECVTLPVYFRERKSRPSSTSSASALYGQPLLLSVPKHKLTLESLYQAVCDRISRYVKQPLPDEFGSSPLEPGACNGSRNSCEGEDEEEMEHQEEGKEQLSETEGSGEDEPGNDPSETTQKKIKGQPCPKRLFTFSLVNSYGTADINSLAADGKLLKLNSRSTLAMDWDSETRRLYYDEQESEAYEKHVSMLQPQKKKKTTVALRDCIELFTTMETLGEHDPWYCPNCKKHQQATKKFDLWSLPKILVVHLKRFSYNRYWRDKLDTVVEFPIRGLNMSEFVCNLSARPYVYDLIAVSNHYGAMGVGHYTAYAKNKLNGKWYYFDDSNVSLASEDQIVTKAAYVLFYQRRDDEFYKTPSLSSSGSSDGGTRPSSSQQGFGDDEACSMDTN

[3] = target: T3, USP4 (endogenous, MDA-MB-231) (human (endogenous in MDA-MB-231)) (UniProt Q13107); experiment: co-IP; Fig 4G: MDA-MB-231 cells, endogenous proteins; IP-western with anti-FBXO3 or anti-USP4 antibody and Protein G Plus/Protein A agarose beads
T3 sequence: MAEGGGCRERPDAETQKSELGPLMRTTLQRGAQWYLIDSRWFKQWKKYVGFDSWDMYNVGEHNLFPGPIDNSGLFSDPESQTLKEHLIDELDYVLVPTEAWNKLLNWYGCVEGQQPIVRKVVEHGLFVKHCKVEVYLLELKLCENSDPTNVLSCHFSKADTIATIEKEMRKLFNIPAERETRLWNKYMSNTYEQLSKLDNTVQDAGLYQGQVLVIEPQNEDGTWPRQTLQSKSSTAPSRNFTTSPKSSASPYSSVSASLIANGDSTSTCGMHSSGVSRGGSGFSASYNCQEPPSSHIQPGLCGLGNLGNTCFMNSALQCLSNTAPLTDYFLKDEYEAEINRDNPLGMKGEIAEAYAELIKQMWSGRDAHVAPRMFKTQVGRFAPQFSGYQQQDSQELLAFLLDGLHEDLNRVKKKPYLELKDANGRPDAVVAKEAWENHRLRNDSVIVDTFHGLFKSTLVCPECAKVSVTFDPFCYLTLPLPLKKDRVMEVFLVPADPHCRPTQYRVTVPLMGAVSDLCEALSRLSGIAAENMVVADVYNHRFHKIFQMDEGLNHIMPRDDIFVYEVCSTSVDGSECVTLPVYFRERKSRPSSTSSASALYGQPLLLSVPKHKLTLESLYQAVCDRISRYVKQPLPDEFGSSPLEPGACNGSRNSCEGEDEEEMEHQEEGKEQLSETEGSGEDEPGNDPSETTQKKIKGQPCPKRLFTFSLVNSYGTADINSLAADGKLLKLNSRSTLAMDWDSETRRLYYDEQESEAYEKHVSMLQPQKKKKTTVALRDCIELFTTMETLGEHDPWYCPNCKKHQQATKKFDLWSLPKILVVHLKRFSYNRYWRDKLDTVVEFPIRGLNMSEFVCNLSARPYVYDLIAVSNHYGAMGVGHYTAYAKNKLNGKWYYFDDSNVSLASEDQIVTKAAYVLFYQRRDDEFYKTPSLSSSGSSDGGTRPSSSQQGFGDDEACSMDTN

[4] = target: T4, Flag-USP4 (stably expressed in MDA-MB-231) (UniProt Q13107); experiment: co-IP; Fig 4H: MDA-MB-231 cells stably expressing Flag-USP4, infected with lentivirus expressing HA-FBXO3 or a vector control; 0.5 μm Tosedostat for 16 h; IP-western
T4 sequence: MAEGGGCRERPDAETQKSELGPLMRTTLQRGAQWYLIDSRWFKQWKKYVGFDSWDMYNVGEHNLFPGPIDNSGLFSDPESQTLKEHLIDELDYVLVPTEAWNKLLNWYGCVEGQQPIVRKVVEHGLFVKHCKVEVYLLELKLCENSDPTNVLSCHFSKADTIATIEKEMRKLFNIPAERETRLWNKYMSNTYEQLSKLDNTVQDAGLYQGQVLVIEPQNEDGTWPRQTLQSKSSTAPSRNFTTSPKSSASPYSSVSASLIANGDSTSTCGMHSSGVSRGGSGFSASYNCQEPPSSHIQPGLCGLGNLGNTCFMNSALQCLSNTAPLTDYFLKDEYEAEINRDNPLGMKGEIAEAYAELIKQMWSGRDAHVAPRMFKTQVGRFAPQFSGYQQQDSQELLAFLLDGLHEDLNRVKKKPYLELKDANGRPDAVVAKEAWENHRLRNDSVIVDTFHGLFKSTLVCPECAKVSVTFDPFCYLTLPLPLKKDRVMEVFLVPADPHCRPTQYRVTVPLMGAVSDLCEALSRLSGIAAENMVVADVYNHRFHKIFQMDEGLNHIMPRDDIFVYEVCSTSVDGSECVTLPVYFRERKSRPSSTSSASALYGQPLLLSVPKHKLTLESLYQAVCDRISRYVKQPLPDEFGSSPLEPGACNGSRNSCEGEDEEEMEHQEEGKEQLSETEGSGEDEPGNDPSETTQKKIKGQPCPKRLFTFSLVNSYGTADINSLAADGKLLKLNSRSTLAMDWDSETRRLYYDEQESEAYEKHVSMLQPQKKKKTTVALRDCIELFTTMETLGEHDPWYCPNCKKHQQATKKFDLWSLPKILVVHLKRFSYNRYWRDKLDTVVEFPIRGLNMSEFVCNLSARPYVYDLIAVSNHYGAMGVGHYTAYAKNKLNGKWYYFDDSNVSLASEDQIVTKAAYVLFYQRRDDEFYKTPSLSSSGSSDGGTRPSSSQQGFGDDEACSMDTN

“ERK2 (from UniProt P28482 1-360) (enzyme)” was tested, and the binding [1] was “no binding”.

With “ERK1 (from UniProt P27361 1-379) (enzyme)” the binding [1] was “binds”.

B1: HA-FBXO3 wild-type (protein, UniProt Q9UK99 1-471)
chain: MAAMETETAPLTLESLPTDPLLLILSFLDYRDLINCCYVSRRLSQLSSHDPLWRRHCKKYWLISEEEKTQKNQCWKSLFIDTYSDVGRYIDHYAAIKKAWDDLKKYLEPRCPRMVLSLKEGAREEDLDAVEAQIGCKLPDDYRCSYRIHNGQKLVVPGLLGSMALSNHYRSEDLLDVDTAAGGFQQRQGLKYCLPLTFCIHTGLSQYIAVEAAEGRNKNEVFYQCPDQMARNPAAIDMFIIGATFTDWFTSYVKNVVSGGFPIIRDQIFRYVHDPECVATTGDITVSVSTSFLPELSSVHPPHYFFTYRIRIEMSKDALPEKACQLDSRYWRITNAKGDVEEVQGPGVVGEFPIISPGRVYEYTSCTTFSTTSGYMEGYYTFHFLYFKDKIFNVAIPRFHMACPTFRVSIARLEMGPDEYEEMEEEEEEEEEEDEDDDSADMDESDEDDEEERRRRVFDVPIRRRRCSRLF
For B1, the binding [2] was “binds”.

B2: FBXO3 (endogenous, MDA-MB-231) (protein, UniProt Q9UK99 1-471)
chain: MAAMETETAPLTLESLPTDPLLLILSFLDYRDLINCCYVSRRLSQLSSHDPLWRRHCKKYWLISEEEKTQKNQCWKSLFIDTYSDVGRYIDHYAAIKKAWDDLKKYLEPRCPRMVLSLKEGAREEDLDAVEAQIGCKLPDDYRCSYRIHNGQKLVVPGLLGSMALSNHYRSEDLLDVDTAAGGFQQRQGLKYCLPLTFCIHTGLSQYIAVEAAEGRNKNEVFYQCPDQMARNPAAIDMFIIGATFTDWFTSYVKNVVSGGFPIIRDQIFRYVHDPECVATTGDITVSVSTSFLPELSSVHPPHYFFTYRIRIEMSKDALPEKACQLDSRYWRITNAKGDVEEVQGPGVVGEFPIISPGRVYEYTSCTTFSTTSGYMEGYYTFHFLYFKDKIFNVAIPRFHMACPTFRVSIARLEMGPDEYEEMEEEEEEEEEEDEDDDSADMDESDEDDEEERRRRVFDVPIRRRRCSRLF
For B2, the binding [3] was “binds”.

B3: HA-FBXO3 (lentiviral, in MDA-MB-231) (protein, UniProt Q9UK99 1-471)
chain: MAAMETETAPLTLESLPTDPLLLILSFLDYRDLINCCYVSRRLSQLSSHDPLWRRHCKKYWLISEEEKTQKNQCWKSLFIDTYSDVGRYIDHYAAIKKAWDDLKKYLEPRCPRMVLSLKEGAREEDLDAVEAQIGCKLPDDYRCSYRIHNGQKLVVPGLLGSMALSNHYRSEDLLDVDTAAGGFQQRQGLKYCLPLTFCIHTGLSQYIAVEAAEGRNKNEVFYQCPDQMARNPAAIDMFIIGATFTDWFTSYVKNVVSGGFPIIRDQIFRYVHDPECVATTGDITVSVSTSFLPELSSVHPPHYFFTYRIRIEMSKDALPEKACQLDSRYWRITNAKGDVEEVQGPGVVGEFPIISPGRVYEYTSCTTFSTTSGYMEGYYTFHFLYFKDKIFNVAIPRFHMACPTFRVSIARLEMGPDEYEEMEEEEEEEEEEDEDDDSADMDESDEDDEEERRRRVFDVPIRRRRCSRLF
B3 was tested, and the binding [4] was “binds”.
